{"source": "PubChem BioAssay AID686970", "about": "(National Center for Advancing Translational Sciences (NCATS), 2013)", "note": "Out of some 360,000 compounds screened, about 6,000 (1.7%) were called active. The inconclusive results got no clear call from the source; some entries with a clear call stand among them for comparison. Calls follow the shape of the dose curve; as a rule, active = well fitted cell-killing curve with a large enough effect; inconclusive = small, poorly fitted or top-dose-only effect, or effect the other way; inactive = flat fitted curve, though single readings scatter. Potencies of inconclusive entries are left out as doubtful fits. Potency is read from the fitted curve at half-maximal effect; tags tell the direction and shape of the fitted curve.", "data": [{"assay": "qHTS for induction of synthetic lethality in tumor cells producing 2HG: qHTS for the HT-1080-NT fibrosarcoma cell line;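 also: NT is the 2HG producing partner of a matched IDH1 knockdown line; nearly all actives have a fitted effect of over 55% in size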", "details": "HT-1080-NT fibrosarcoma viability, CellTiter-Glo ATP luminescence, 48 h; series mostly up to 46.1 µM", "procedure,_shortened": "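HT-1080-NT; 750 cells/well; 5% FBS RPMI; 48 h compound, 37 degrees C; CellTiter-Glo luminescence; curve fitting and curve-class assignment.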", "values": [{"smiles": "N/C(=N\\O)c1ccc([N+](=O)[O-])s1", "Potency": "inconclusive [cytotoxic, single point]"}, {"smiles": "O=C(NCCc1ccc(F)cc1)c1coc(=O)c(Br)c1", "Potency": "inconclusive [cytotoxic, single point]"}, {"smiles": "CCn1c(CCNC(=O)c2ccc(Cl)c(Cl)c2)nnc1SCCOc1ccc(OC)cc1", "Potency": "inconclusive [cytotoxic, single point]"}, {"smiles": "CCc1ccc(-c2cn3c(n2)SCC3)cc1", "Potency": "inconclusive [rising, partial curve]"}, {"smiles": "Cc1cc(O)c(-c2cc(C(=O)Nc3ccc(S(=O)(=O)N4CCOCC4)cc3)[nH]n2)cc1C", "Potency": "active: 14.1 µM"}, {"smiles": "Cn1cc(CN2CCCC(C(=O)c3ccc(-c4ccccc4)c(F)c3)C2)cn1", "note": "(stereo not drawn)", "Potency": "active: 23.1 µM"}, {"smiles": "Cn1c(-[n+]2c(-c3ccccc3)cc(-c3ccccc3)cc2-c2ccccc2)nc2c([N+](=O)[O-])cccc21", "Potency": "inconclusive [cytotoxic, single point]"}, {"smiles": "COc1cc(C(=S)N2CCN(c3cccc(Cl)c3)CC2)ccc1O", "Potency": "inconclusive [cytotoxic, partial curve]"}, {"smiles": "COc1ccc(S(=O)(=O)Cc2ccc(C(=O)N3CC(C)CC(C)C3)o2)cc1", "note": "(stereo not drawn)", "Potency": "inconclusive [rising, single point]"}, {"smiles": "CCCCn1nnc(NC(=O)COc2ccc(Cl)c(C)c2)n1", "Potency": "inconclusive [rising, partial curve, poor fit]"}, {"smiles": "COc1cc(N)c2ncccc2c1Br", "Potency": "inactive"}, {"smiles": "COCCCN1C(=O)C(=O)/C(=C(/O)c2ccc(S(=O)(=O)N3CCOCC3)cc2)C1c1ccc(C(C)C)cc1", "note": "(stereo not drawn)", "Potency": "inactive"}, {"smiles": "O=C(COC(=O)c1ccccc1NS(=O)(=O)c1cccs1)NCC12CC3CC(CC(C3)C1)C2", "Potency": "inactive"}, {"smiles": "CCOC(=O)c1ccc(N=C2SC(C(=O)NC)CC(=O)N2Cc2ccc(F)cc2)cc1", "note": "(stereo not drawn)", "Potency": "inconclusive [rising, single point]"}, {"smiles": "CN(C)S(=O)(=O)c1cccc(N=C2NN=C(c3ccccc3)CS2)c1", "Potency": "inconclusive [cytotoxic, single point]"}, {"smiles": "C=C1CCC[C@]2(C)C[C@H]3OC(=O)C(CN4CCCCC4CO)[C@H]3CC12", "note": "(stereo partly drawn)", "Potency": "inconclusive [cytotoxic, single point]"}, {"smiles": "CCOC(=O)C1=CCN(S(=O)(=O)c2ccccc2Cl)C1c1cccc(Cl)c1", "note": "(stereo not drawn)", "Potency": "inconclusive [cytotoxic, single point]"}, {"smiles": "O=[N+]([O-])c1cc(Br)c(Nc2ccccc2)c([N+](=O)[O-])c1", "Potency": "inconclusive [cytotoxic, full curve]"}]}]}
